Reference: the supplement of paper PMC11417369
The other results are listed elsewhere or left out.

Tested on: PfAP2-HC AP2 domain (GST-tagged)
Assay: gcPBM binding intensity (ln(normalized median fluorescence intensity)); higher = stronger DNA binding
Method in brief: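 An Agilent 4 × 180k array carrying primer-extended double-stranded 36-bp intergenic genomic probes and negative controls received GST-tagged P. falciparum DNA-binding domains expressed in E. coli, about 25 μg on average, for 1 h. The binding buffer contained 1× PBS, 1% milk, 0.2 mg/ml BSA, 0.5% salmon testes DNA and 0.03% Triton X-100. Binding intensity is the top Masliner-normalised natural-log median intensity across replicate spots of either probe orientation, read after Alexa488 anti-GST antibody staining and a 488 nm scan.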

Sequence	gcPBM binding intensity (ln)
TTTTGAGAAAAAATAAAATAATAAATAAAAATACAT [XGTACX_negctrl_site66]	9.57
AATACAATTGAAAATTGTACTTTGTTTTTTATAAAT [XGTACX_site4080]	9.43
CACATTTCTGTAGTTGCATGTAGAAAAAAAAAAAAA [TGCATGCA_site810]	9.38
CATATAATAAATAATACACACATATTGGAAATATAT [CACACA_site3212]	9.89
TTTATTTATTTATATTTTTTTATATAATTTATATAT [GTGCAC_negctrl_site301]	9.57
AAAGGTATATATGTGTGTACATATATATATATATAT [XGTACX_site5629]	9.86
AAAAATAAAAAAAAATTAAAATATATATATTTTGTT [TGCATGCA_negctrl_site102]	9.34
AGGAAAAAAAGTAGCACACAAATATTTATAATATAT [CACACA_site2437]	10.2
AACATATTTATATACACACACATATTTATATGAAAT [CACACA_site6268]	10.1
GAGAGGATACATACATGTACATAAATATTTTATTTT [XGTACX_site5129]	9.69
CGTAGCCGCACTAACACACACAAATATACGCAATCA [CACACA_site2898]	10.1
AAAAAAAAAAAAAATAATAAATAAATAAATAAATAA [GTGCAC_negctrl_site505]	9.38
ATATTTTGGGTGTTGTTTTTTTTTAAAACTCTTTAA [CACACA_negctrl_site1255]	9.75
ATTAGTTTATATGAATGATTTTTCTTTTTTTTTTTT [CACACA_negctrl_site88]	9.52
TTACTATTTCACTGTGCATGCAACAAAAATCTATCT [TGCATGCA_site808]	9.58
TATCATTTTGAAGTATGTACTTATTTTATTAAAATA [XGTACX_site7784]	9.51
ATTATATTAAAATATTCACACACTAACGTAAATCAT [CACACA_site8887]	9.73
TAAATACATAAATACACACACATATATATATATATA [CACACA_site5549]	10.1
TGTATAAGGTTTTTACGTTTTGAAGGATGTATTGTT [CACACA_negctrl_site1245]	9.68
TAGGTCATATTTTTTGCACACAAAAAAAAATATAAA [CACACA_site3380]	9.81
TTTTTCCAATCAGATGCATGTTACTATATTTGGTTC [TGCATGCA_site52]	9.73
CACCTCAATATTCACATACACACAATATCATCGAAG [CACACA_site1675]	10

Sequence	gcPBM binding intensity (ln)
AAGGAAAAAACAAATACACACAAAAACGCATTATAA [CACACA_site3466]	10.2
ATGAACTTATTTTAGTGTACTAAAAAATATGACTTC [XGTACX_site470]	9.47
TATGTTCCGAAGGTTGTACACACATAGAAATATACA [CACACA_site9285]	9.76
GGGAGGATATTACACAGTACCCAGGAAATCTACGGA [XGTACX_site4874]	9.54
TTTTTTTTTTTTGTAACATGCAAACAACAATATGGG [TGCATGCA_site695]	9.41
ATGTAATTGTATACATGTACGCAAACACAAAAGCAT [XGTACX_site6771]	9.97
TACATAATTTTAATCACACACAAACAAACACATACA [CACACA_site194]	10.2
GTAAGTATATATAATAGTACATATATATTAATATAT [XGTACX_site4314]	9.76
TTTTGTTCATACAAATTGGAACAAGACAAAAATATA [XGTACX_negctrl_site327]	9.56
TAATATTTTATTTTTGTTGTGGATCCAAAAAAAAAA [CACACA_negctrl_site846]	9.39
CTATATATTTAAAAAAGTACAAATATAAAAATATAT [XGTACX_site676]	9.61
TGTTTACACTTTTTTTGTACACATAATTTTATTTGA [XGTACX_site3760]	9.74
AAAAAAAAAAAAAACACACACATATAACATATTTAA [CACACA_site6745]	10.5
TATTCTAGTCTGCTTACACACATATTTATATTTATA [CACACA_site7432]	10.2
TTATTTCTTCAGAAAAAATTAAAAAATTAAACAATA [CACACA_negctrl_site169]	9.35
ATTTTTTTTTTTTTTTTTTTTTTTTTTTTTTTATGC [CACACA_negctrl_site1018]	9.21
AATATATGGTTTCATGATATAAAATTCAATTTAATG [GTGCAC_negctrl_site610]	9.51
TATATATATATATATGTATGCATGTCCTTTTTTATT [TGCATGCA_site344]	9.65
ATTTTTTTTAAACGAAGTACAATTTGTGCATTGGAA [XGTACX_site8109]	9.34
TTTTTTTTTTTTGTAGTGCAAATTAAAAATATATGT	9.39
TGTTTATCATATTTGTGTCCTCATTTTTTAGTATCA [XGTACX_site947]	9.77
ACAAAAAAAAAGGAAACACACAAAAAAAAAAAATAA [CACACA_site3523]	9.77

Sequence	gcPBM binding intensity (ln)
ACCTATAAAAAATAATGTACAGGAAGAAATATAAGG [XGTACX_site5822]	9.81
ACTATATTTCTATAATGTACAAAAATAAATCATATG [XGTACX_site3337]	9.46
TAATTTACACCTACGTGTACACACAAAAATATGTTT [XGTACX_site1868]	10
TTTATTATCAAGATTGCACACCCTTATGAACTTTTT [CACACA_site3166]	9.82
AAAAAAAAAAAAAATACACACAAACACAAATTAAAT [CACACA_site5982]	10.8
GTAATATTATAATATACACACATAGAATATATATAT [CACACA_site413]	9.82
AAGATCATATATTCGTGGGTATAAAAAGTTATAATA [TGCATGCA_negctrl_site439]	9.54
AGAAATATGTTGAAGCATTTATAATGTAGATATAAG [GTGCAC_negctrl_site640]	9.72
TTATTAAAGGAAAAATGTACATATAAATGAATATGT [XGTACX_site23]	9.52
AAAAAATGTAAATATAAACAACCAAAGGGGGTATAC [GTGCAC_negctrl_site465]	10
TACGTGAAGTTATATACACACATAAATATGTCTGTA [CACACA_site7463]	9.75
ATAATATTTTATGGTTGTACTTTTAGTTCTTTTTTT [XGTACX_site5756]	9.7
ATTAAATATATTTTGCGTACACAAAAAAATACGTTC [XGTACX_site3862]	9.83
TTAAAGTATAACTGTACATGCGAGTAAAAGAATGAC [TGCATGCA_site899]	9.98
GAAAAAAAACACATTGTGCACTTTTCCTTAAGTATA [GTGCAC_site9475]	9.58
GGAGAAAAAAAAAAAAAACACACGGTACATTCAAAG [CACACA_site1503]	9.92
TTTTTTTCGTATATTACACACTATATATAGAAATTA [CACACA_site298]	9.56
AAAAAAAAAAAGCACACACACATATGCGTATATATA [CACACA_site954]	10.9
AAAGAAGGTAAACACACACACACACCGACAAAAAAA [CACACA_site9255]	11.5
AAATTATCCAAAAATTGTACTTAAAACAACATAAAA [XGTACX_site6238]	9.58
ACCATTTGTAGGTAAACACACATTATTCTTAATATC [CACACA_site5453]	9.77
TTTCTCTTATTCCAATCTATAATAAGTATCAATATT [CACACA_negctrl_site179]	9.59

Sequence	gcPBM binding intensity (ln)
ATATATTCATTTTTATGTACGTAAATTGTAAATTGG [XGTACX_site8242]	9.62
AAAATAATAATAAAAAGTACATGTGTATATAATAAA [XGTACX_site754]	9.91
TGCATTATTTTATGAAGTACATATGAACAAAAAATT [XGTACX_site2185]	9.48
AATATTAAACAAATGAAAAAAAAATATATATTATAT [CACACA_negctrl_site742]	9.66
TATGTTTTTCGGTATGCATGCATATGCTTAATAATA [TGCATGCA_site184]	9.55
AAAATAACACAAATGGGTACATATTATATTAAATAA [XGTACX_site7027]	9.74
AATATATATATGATTATATATATATATATATATATA [GTGCAC_negctrl_site290]	9.35
TTTAATTAAAATATATGTACATATATATATATATAT [XGTACX_site4517]	9.66
GCACCAAAAAAAAGACGTACAGTTATATTAAAATAG [XGTACX_site8926]	9.6
AAATGAACAAGTGGCACACACACATTCTAACTAATT [CACACA_site3203]	10.6
ATATGATTTGGATGTAGTACATATTTTTTTATGTTT [XGTACX_site1929]	9.82
AACCAAATTTCACCATGTACATATTGATAAATATAT [XGTACX_site1374]	9.65
AATGAACAGACGAGCACACACACACCCATATATATA [CACACA_site1018]	10.9
TAATGTATTATTTAATGTACTTAAAAAATAAATAAA [XGTACX_site3296]	9.48
ACCTTTAATAAATACACACACATAAAAAAAATATAT [CACACA_site5086]	10.2
TATTATATGAATAATTGTACGAAATTTAAAAGACAA [XGTACX_site7558]	9.63
CACAAATATATACATACACACATATATACGCATATA [CACACA_site395]	10.2
GGGGAGCTATCTCCTGCACACACAATTTTTTTTTTT [CACACA_site8703]	9.99
TGATTATCCTTCAGGAGTACATATAATATAATATAT [XGTACX_site1479]	9.62
AATGAAAAGAAATAATAAATAAATGATGACCAGCTG [GTGCAC_negctrl_site398]	9.76
ATATATATATGAATCACACACAAAAAATATAGAGAT [CACACA_site3913]	10.4
